In the antibiotic and cytotoxicity screens of Wong et al. (2023):
Some of the results follow.

Experiments:
HSkMC = human skeletal muscle cells; assay: cytotoxicity call (relative viability < 0.9); details: 10 µM
HepG2 = assay: cytotoxicity call (relative viability < 0.9); details: 10 µM
S. aureus RN4220 = assay: growth inhibition call (relative growth <= 0.2); details: 50 µM

| SMILES | cytotoxicity call (HSkMC) | cytotoxicity call (HepG2) | growth inhibition call (S. aureus RN4220) |
| --- | --- | --- | --- |
| COc1ccc(CN(C)C[C@H]2OCCCC[C@@H](C)Oc3ccc(NS(=O)(=O)c4c(C)noc4C)cc3C(=O)N([C@H](C)CO)C[C@H]2C)cc1 | inactive | inactive | inactive |
| O=C(C[C@H]1CC[C@@H]2[C@H](COC[C@@H](O)CN2S(=O)(=O)c2ccccc2)O1)N[C@@H]1CCN(Cc2ccccc2)C1 | inactive | inactive | inactive |
| C[C@H]1CN([C@@H](C)CO)C(=O)Cc2cc(NC(=O)NC3CCCCC3)ccc2O[C@H]1CN(C)S(=O)(=O)c1cn(C)cn1 | inactive | inactive | inactive |
| CC(C)(C)OC(=O)C[C@H]1CC=CC[C@H](CC(=O)NCCO)C(=O)N[C@@H](Cc2c[nH]c3ccccc23)COC1=O | inactive | inactive | inactive |
| C[C@@H]1CCCCO[C@@H](CN(C)C(=O)c2ccccc2)[C@H](C)CN([C@H](C)CO)C(=O)c2cc(NS(=O)(=O)c3ccccc3)ccc2O1 | inactive | inactive | inactive |
| NC(=O)C1CCCN1C(=O)C(Cc1c[nH]cn1)NC(=O)C1CCC(=O)N1 (stereo unspecified) | inactive | inactive | inactive |
| C[C@@H]1CCCCO[C@@H](CN(C)Cc2ccc(Cl)c(Cl)c2)[C@H](C)CN([C@@H](C)CO)C(=O)c2cc(NC(=O)Nc3ccccc3)ccc2O1 | inactive | inactive | inactive |
| C[C@H](CO)N1C[C@H](C)[C@H](CN(C)Cc2ccc(Oc3ccccc3)cc2)Oc2ccc(NC(=O)NC3CCCCC3)cc2CC1=O | inactive | inactive | inactive |
| COCC(=O)Nc1ccc2c(c1)OC[C@H](C)N(Cc1ccccc1OC)C[C@@H](C)[C@@H](OC)CN(C)C2=O | inactive | inactive | inactive |
| C[C@@H]1CCCCO[C@H](CN(C)C(=O)NC2CCCCC2)[C@H](C)CN([C@H](C)CO)C(=O)c2cc(NC(=O)c3ccccc3)ccc2O1 | inactive | inactive | inactive |
| C[C@H](CO)N1C[C@H](C)[C@H](CN(C)C(=O)Nc2ccc3c(c2)OCO3)Oc2ccc(NC(=O)Nc3ccc(C(F)(F)F)cc3)cc2CC1=O | inactive | inactive | inactive |
| C[C@@H]1CN([C@@H](C)CO)C(=O)c2cccc(NS(C)(=O)=O)c2O[C@@H]1CN(C)C(=O)Nc1ccc(C(F)(F)F)cc1 | inactive | inactive | active |
| C#CCCCCCCCCCCCC(O)CC(O)COC(C)=O (stereo unspecified) | inactive | inactive | inactive |
| C[C@H](CO)N1C[C@H](C)[C@H](CN(C)C(=O)Nc2ccc(C(F)(F)F)cc2)Oc2c(NC(=O)c3nc4ccccc4s3)cccc2C1=O | inactive | inactive | inactive |
| C[C@H]1CN([C@@H](C)CO)C(=O)Cc2cc(NC(=O)Cc3ccccc3)ccc2O[C@H]1CN(C)Cc1ccc(-c2ccccc2)cc1 | inactive | active | inactive |
| N#CC(=Cc1ccc(O)c(O)c1)C(N)=O | inactive | inactive | inactive |
| COc1ccc(S(=O)(=O)N(C)C[C@@H]2Oc3ncc(-c4ccc(F)cc4)cc3C(=O)N([C@H](C)CO)C[C@@H]2C)cc1 | inactive | inactive | inactive |
| CC(C)CNC(=O)C(=O)NC[C@H]1OCCN1S(=O)(=O)c1ccc2c(c1)OCCO2 | inactive | inactive | inactive |
| O=C1CN(c2ccccc2)C=NN1 | inactive | inactive | inactive |

| SMILES | cytotoxicity call (HSkMC) | cytotoxicity call (HepG2) | growth inhibition call (S. aureus RN4220) |
| --- | --- | --- | --- |
| Cc1ccccc1OCC(=O)NCC(=O)O | inactive | inactive | inactive |
| C[C@@H]1CN([C@H](C)CO)C(=O)c2cc(NC(=O)C3CCCCC3)ccc2O[C@@H](C)CCCCO[C@@H]1CN(C)CC1CCCCC1 | inactive | active | inactive |
| C[C@H]1CN([C@@H](C)CO)C(=O)c2cc(-c3cccc(C#N)c3)cnc2O[C@H]1CN(C)C(=O)C1CCOCC1 | inactive | inactive | inactive |
| C[C@H]1CN([C@@H](C)CO)C(=O)Cc2cc(NC(=O)C3CCCCC3)ccc2O[C@H]1CN(C)Cc1ccc(C(=O)Nc2ccccc2N)cc1 | inactive | inactive | inactive |
| C[C@@H]1CN([C@H](C)CO)C(=O)c2cc(C#Cc3cccnc3)cnc2O[C@@H]1CN(C)Cc1ccc(F)cc1 | inactive | inactive | inactive |
| Cc1cc(C)n(-c2nc3c(c(=O)n(CCN4CCOCC4)c(=O)n3C)n2C)n1 | inactive | inactive | inactive |
| CCCCCCCCC=CCCCCCCCC(=O)[O-].[NH3+]CCO | inactive | inactive | inactive |
| CCc1nc(N)nc(N)c1-c1ccc(Cl)cc1 | inactive | active | inactive |
| C[C@@H]1CCCCO[C@H](CN(C)Cc2ccncc2)[C@@H](C)CN([C@@H](C)CO)C(=O)c2cc(NC(=O)NC3CCCCC3)ccc2O1 | inactive | inactive | inactive |
| CO[C@@H]1CN(C)C(=O)c2cc(NC(=O)C3CC3)ccc2OC[C@@H](C)N(C(=O)CN2CCOCC2)C[C@@H]1C | inactive | inactive | inactive |
| C[C@@H]1CCCCO[C@@H](CN(C)S(=O)(=O)c2cccs2)[C@@H](C)CN([C@@H](C)CO)C(=O)c2cc(NC(=O)Nc3ccc4c(c3)OCO4)ccc2O1 | inactive | inactive | inactive |
| C[C@H](CO)N1C[C@H](C)[C@@H](CN(C)C(=O)Nc2ccc3c(c2)OCO3)OCCCC[C@H](C)Oc2ccc(NC(=O)NC3CCCCC3)cc2C1=O | inactive | inactive | inactive |
| C[C@H](CO)N1C[C@H](C)[C@H](CN(C)C(=O)C2CC2)OCc2cnnn2CCCC1=O | inactive | inactive | inactive |
| Cc1ccc(S[C@]2(C(=O)O)CC(=O)N(Cc3ccccc3C(F)(F)F)[C@@H]2c2ccc(CO)cc2I)cc1 | inactive | inactive | inactive |
| CCS(=O)(=O)N1C[C@]2(CN(C2)C(=O)Nc2c(noc2C)C)c2c(n(c3cc(ccc23)OC)C)[C@H]1CO | inactive | inactive | inactive |
| COc1cccc(S(=O)(=O)N2[C@@H]3CC[C@@H](C3)[C@H]2c2nc3cccc(OCc4ccc(F)cc4)c3[nH]2)c1 | inactive | active | inactive |
| Cc1noc(C)c1NC(=O)N(C)C[C@H]1Oc2c(NC(=O)NC(C)C)cccc2C(=O)N([C@@H](C)CO)C[C@@H]1C | inactive | inactive | inactive |
| C[C@@H]1CN([C@@H](C)CO)C(=O)c2cc(NC(=O)Cn3cnnn3)ccc2O[C@H]1CN(C)Cc1ccccc1 | inactive | inactive | inactive |
| CO[C@@H]1CN(C)C(=O)c2ccc(NC(=O)NC(C)C)cc2OC[C@@H](C)N(Cc2ccc(-c3ccccn3)cc2)C[C@H]1C | inactive | inactive | inactive |

| SMILES | cytotoxicity call (HSkMC) | cytotoxicity call (HepG2) | growth inhibition call (S. aureus RN4220) |
| --- | --- | --- | --- |
| N=C(NCCC[C@H](N)C(=O)O)N[C@@H](CCC(=O)O)C(=O)O | inactive | inactive | inactive |
| O=C1O[C@@H](c2ccccc2)[C@@H](c2ccccc2)N2[C@@H](c3ccccc3OCCO)[C@]3(C(=O)Nc4ccc(C#CC5=CCCCC5)cc43)[C@@H](C(=O)N3CCCCCCC3)[C@H]12 | inactive | active | inactive |
| C[C@H](CO)N1C[C@H](C)[C@H](CN(C)C(=O)C2CCCCC2)Oc2cc(C#Cc3ccncc3)ccc2S1(=O)=O | inactive | active | inactive |
| COc1ccc(CCNC(=O)[C@@]2(Sc3ccc(C)cc3)CC(=O)N(Cc3cc(C(F)(F)F)cc(C(F)(F)F)c3)[C@@H]2c2ccc(CO)cc2)cc1 | inactive | inactive | inactive |
| O=C(N[C@@H](c1ccc(-c2ccccc2)cc1)c1cnccn1)C1CCN(CCCOc2ccccc2)CC1 | inactive | active | inactive |
| CC(=O)O[C@H]1[C@H](Oc2cc(O)cc(O)c2C(=O)c2cccc(O)c2)O[C@H](CO)[C@@H](OC(=O)c2ccccc2)[C@@H]1O | inactive | inactive | inactive |
| COc1ccc(CC(=O)c2ccc(O)cc2O)cc1 | inactive | inactive | inactive |
| C[C@H]1CN([C@@H](C)CO)C(=O)c2cc(NS(=O)(=O)c3ccc(F)cc3)ccc2O[C@@H]1CN(C)S(=O)(=O)c1cccs1 | inactive | inactive | inactive |
| C[C@@H]1CN([C@H](C)CO)C(=O)c2cccc(NC(=O)c3nc4ccccc4s3)c2O[C@H]1CN(C)S(=O)(=O)c1cn(C)cn1 | inactive | inactive | inactive |
| C[C@H]1CCCCO[C@H](CN(C)C(=O)Nc2ccc(C(F)(F)F)cc2)[C@@H](C)CN([C@@H](C)CO)C(=O)c2cc(NC(=O)Cc3ccccc3)ccc2O1 | inactive | inactive | inactive |
| COc1ccc(S(=O)(=O)Nc2ccc3c(c2)C(=O)N([C@H](C)CO)C[C@H](C)[C@@H](CN(C)S(=O)(=O)c2cccs2)O3)cc1 | inactive | inactive | inactive |
| C[C@H](CO)N1C[C@H](C)[C@H](CN(C)S(=O)(=O)c2ccccc2C#N)OCc2cn(nn2)CCCC1=O | inactive | inactive | inactive |
| C[C@@H]1CN([C@@H](C)CO)C(=O)c2cc(NC(=O)Cc3ccccc3)ccc2O[C@H]1CN(C)S(=O)(=O)c1cccs1 | inactive | inactive | inactive |
| Cc1cccc([C@@H](N)c2nccn2C)c1 | inactive | inactive | inactive |
| C[C@@H]1CN([C@H](C)CO)C(=O)c2cc(NS(=O)(=O)c3ccc(Cl)cc3)ccc2O[C@@H]1CN(C)Cc1ccc(-c2ccccc2)cc1 | active | active | inactive |
| C[C@H](CO)N1C[C@H](C)[C@H](CN(C)S(=O)(=O)c2ccccc2)Oc2ccc(NC(=O)CCCN(C)C)cc2C1=O | inactive | inactive | inactive |
| CC(C)Oc1cccc(CC(=O)N2CCC[C@](CC[N+]34CCC(c5ccccc5)(CC3)CC4)(c3ccc(Cl)c(Cl)c3)C2)c1 | inactive | inactive | active |
| C[C@@H]1CN([C@H](C)CO)C(=O)c2cc(NC(=O)NC3CCCCC3)ccc2O[C@H]1CN(C)Cc1ccc(Cl)c(Cl)c1 | inactive | inactive | inactive |
| Cc1cc(C(=O)NN)n(C(C)(C)C)n1 | inactive | inactive | inactive |
